PMC7819943, “Rice protein-binding microarrays: a tool to detect cis-acting elements near promoter regions in rice”
This is one part of the list.

Molecular target: T1, OsWOX13 (Oryza sativa, UniProt Q5QMM3 1-267)
T1 sequence: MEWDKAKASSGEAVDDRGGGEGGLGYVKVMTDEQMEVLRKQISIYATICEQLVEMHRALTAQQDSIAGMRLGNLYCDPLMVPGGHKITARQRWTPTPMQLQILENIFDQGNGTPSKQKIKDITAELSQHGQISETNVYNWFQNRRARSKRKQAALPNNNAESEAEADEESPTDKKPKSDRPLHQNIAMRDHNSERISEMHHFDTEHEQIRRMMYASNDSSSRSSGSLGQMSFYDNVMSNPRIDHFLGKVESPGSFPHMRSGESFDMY
Assay: protein-binding microarray (RPBM); PBS, 2% BSA, 51.3 ng/ul salmon testes DNA, 50 uM zinc acetate, 200 nM TF, 25 C, 1 h; high values mean tight binding
Settings: protein: recombinant; tags: N-terminal polyhistidine and DsRed monomer fusion (pET32a); label: CyDye5-dUTP incorporated in the synthesized complementary strand; 3' TTTTT single-stranded linker to array surface; dsDNA, one strand shown
Outline: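 An Axon 4000B scanner gave the binding signal as per-feature fluorescence intensity in arbitrary units. This followed washing of a custom Agilent array that had been incubated for 1 h at 25 °C with 200 nM protein in PBS, 2% BSA, salmon testes DNA and 50 µM zinc acetate. The proteins were transcription factors fused at the N-terminus to polyhistidine and DsRed, expressed in E. coli BL21-CodonPlus and purified on Ni–NTA.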

Sequence | binding signal
TAATACAATTACATTATAATTATAGACTATATTTTACATCCGGAGTCACCTAGTGCAG | 25000 fluorescence intensity (a.u.)
TAGAGATTGAGATTTTCACCACAATGCCACTGAACTATCCCGGAGTCACCTAGTGCAG | 12300 fluorescence intensity (a.u.)
GATAAATTCAATTAAGGTTCATACCTTGAAAATTGTATTTCGGAGTCACCTAGTGCAG | 19200 fluorescence intensity (a.u.)
ACAAATTGTAATATCAGATAGAAACCCTTCGGTGTGTTCACGGAGTCACCTAGTGCAG | 6080 fluorescence intensity (a.u.)
TTCCTGACCCTGCTTCACCTTAATTGTTATTTGAACAAAACGGAGTCACCTAGTGCAG | 3680 fluorescence intensity (a.u.)
TTGTACATAATTGAAATTGACAATATACAATGTATAAGGGCGGAGTCACCTAGTGCAG | 45100 fluorescence intensity (a.u.)
GTAGATGAGCAATCCAATGTGTACCTGTGTTGTCTGTTGACGGAGTCACCTAGTGCAG | 3510 fluorescence intensity (a.u.)
TTCTTCGGTGGTGGTGGTGGTGGGATGGAAGAGGAGGAAGCGGAGTCACCTAGTGCAG | 8000 fluorescence intensity (a.u.)
TCAAATACTAAGACTAATTGGTTAGTCTAACTACTTTCGTCGGAGTCACCTAGTGCAG | 13000 fluorescence intensity (a.u.)
TTGCAAATAATTTGGAAAGGTAATATGAGCTACAGCTGTGCGGAGTCACCTAGTGCAG | 7080 fluorescence intensity (a.u.)
TGAAACAAATTGACCACGTATGTATACTCATATGCAAATACGGAGTCACCTAGTGCAG | 14100 fluorescence intensity (a.u.)
CACCGTAATCATCATTCATCAGTACAATTAATCAACATTACGGAGTCACCTAGTGCAG | 18300 fluorescence intensity (a.u.)
GTGTGGATGGTTAGGGGAGGGTTATGTGGAGGGTCTTGTCCGGAGTCACCTAGTGCAG | 3570 fluorescence intensity (a.u.)
AAAATTTACTTTTGATAGACATATTTCAATCCAACCATCTCGGAGTCACCTAGTGCAG | 8670 fluorescence intensity (a.u.)
CACATAATTGAACTGCTAATTTTATTCTAGTCGGAAGCACCGGAGTCACCTAGTGCAG | 54600 fluorescence intensity (a.u.)
ATTAATTATATGATAGCAATAGATTTTCTATCGTTTTCTTCGGAGTCACCTAGTGCAG | 33100 fluorescence intensity (a.u.)
GAGTGATTTTGGTGTGAATAGTTGGGTACTGTGGTAAATGCGGAGTCACCTAGTGCAG | 6930 fluorescence intensity (a.u.)
CCAAGATAGTAAGTTAGTAACTAATTACTTGACCAAGTGGCGGAGTCACCTAGTGCAG | 5920 fluorescence intensity (a.u.)
TATTAGATTGATTAACTTTAGGAGGAAGGAGTACCGGTTACGGAGTCACCTAGTGCAG | 46100 fluorescence intensity (a.u.)
TACCTAATTACCTTTGGGGTAAAGGGATCACTCGAATGTTCGGAGTCACCTAGTGCAG | 20000 fluorescence intensity (a.u.)
ATAATTTACTGCTACTGACTATATGTACTACCTCTTGCCTCGGAGTCACCTAGTGCAG | 11000 fluorescence intensity (a.u.)
GTAAACTAAACTGATCTGCGAATTAAAGTTAAATTACAAGCGGAGTCACCTAGTGCAG | 4960 fluorescence intensity (a.u.)
CGTAATAAATGAGTGGGACGTAGGGTAGTTTGCATGCCCTCGGAGTCACCTAGTGCAG | 4190 fluorescence intensity (a.u.)
AACCAAGAATTGCAATTAGAAATTGCATAAAGATGTTCACCGGAGTCACCTAGTGCAG | 3490 fluorescence intensity (a.u.)
ATTAAAATATGATTATTTGCTGCAAGACGCCGCATGTATTCGGAGTCACCTAGTGCAG | 9520 fluorescence intensity (a.u.)
AGCCACGCAATCAATTAAATAATTAAGATAGGTACACGTGCGGAGTCACCTAGTGCAG | 26400 fluorescence intensity (a.u.)
TTTAGTTGATTATGGCGCATTTTAATATTTCAAATCTAGACGGAGTCACCTAGTGCAG | 8240 fluorescence intensity (a.u.)

Sequence | binding signal
CTCAGTTTGCTTAATTACATATGAAACTTAAAATGCTGAACGGAGTCACCTAGTGCAG | 5750 fluorescence intensity (a.u.)
CTTGTCTAATTATTGTGCTTTTAATTTCCAGCAGGAACTACGGAGTCACCTAGTGCAG | 25100 fluorescence intensity (a.u.)
GATGTAACTGTGATGTTTATATTTATGTATATATTTCATACGGAGTCACCTAGTGCAG | 3600 fluorescence intensity (a.u.)
ACCTTAATAGCCACCCACTACTCCCACTCCCACTTCGCTCCGGAGTCACCTAGTGCAG | 3510 fluorescence intensity (a.u.)
TGTTTAACCATTCAGTTACACACTCTTACTATCATGCAAACGGAGTCACCTAGTGCAG | 6250 fluorescence intensity (a.u.)
AAATACCTTCAATTAATGCGTAATGTAACTATATAAGCACCGGAGTCACCTAGTGCAG | 19900 fluorescence intensity (a.u.)
GTCATAATCACTCGCATAAACGTAGGATGTTCTTAACTTCCGGAGTCACCTAGTGCAG | 7610 fluorescence intensity (a.u.)
GTTACAGCATAACTGCAATGTAATTATACTATACTCCCTCCGGAGTCACCTAGTGCAG | 5420 fluorescence intensity (a.u.)
AATTAACTTCTAAAGATTAATTTGAATAAGCATTTATTCACGGAGTCACCTAGTGCAG | 5080 fluorescence intensity (a.u.)
ATACAAGAATTACATATAATAATTGGAAAGGTAGCGGGCGCGGAGTCACCTAGTGCAG | 10900 fluorescence intensity (a.u.)
TACTCATATGACATATCCAAATTGACACCGGGGTTAAGCCCGGAGTCACCTAGTGCAG | 6620 fluorescence intensity (a.u.)
ACGTAAATTAATCTGTGGTTTCTTGGCGGCGGATCGATCGCGGAGTCACCTAGTGCAG | 19700 fluorescence intensity (a.u.)
GCATATAACATAATTGGGGATACATGGTCCACCTGCATGGCGGAGTCACCTAGTGCAG | 15500 fluorescence intensity (a.u.)
ACAGTAATTAGTCAGTTTCAACTCGGTTAGACTGATGTTTCGGAGTCACCTAGTGCAG | 33500 fluorescence intensity (a.u.)
ATTCCATAATGGATATGTTTACTCCATTCGTCCTTGAAATCGGAGTCACCTAGTGCAG | 3260 fluorescence intensity (a.u.)
TGATTGATAATAATTTAATTTGATGACACTATCCATACATCGGAGTCACCTAGTGCAG | 34200 fluorescence intensity (a.u.)
CAAAATTATTAACACTAAAATTTGAAAATGTTGATATGTTCGGAGTCACCTAGTGCAG | 16800 fluorescence intensity (a.u.)
CTCCCACTTTTCCATCACATCACATTACATCCAAAACTTTCGGAGTCACCTAGTGCAG | 3700 fluorescence intensity (a.u.)
TTATACACTGGTTGTAGATTGACAATATGTACTAAGAAATCGGAGTCACCTAGTGCAG | 11300 fluorescence intensity (a.u.)
AGAAAATTAGAAACAAAACATCAAATATAATTTGACTTTTCGGAGTCACCTAGTGCAG | 5160 fluorescence intensity (a.u.)
ATTTAGACAGGTTCCAACCTCCTTGATAACAGTTAAAACCCGGAGTCACCTAGTGCAG | 7950 fluorescence intensity (a.u.)
GAACTAGCTTAATTAAACCACAATTAGAATATATGTAGGACGGAGTCACCTAGTGCAG | 3750 fluorescence intensity (a.u.)
CTATTAAGTTGACTGTAAATAATTTGGAGCCAGCAGTTTGCGGAGTCACCTAGTGCAG | 8660 fluorescence intensity (a.u.)
TATGAATGACATATAAACAGATAATCGTGTTCACCGAATGCGGAGTCACCTAGTGCAG | 20900 fluorescence intensity (a.u.)
AACAGTTGCATGATTGCAACGAAGAGAGACTAACACGAACCGGAGTCACCTAGTGCAG | 4190 fluorescence intensity (a.u.)
CCAAATTCATCTTAATGTTTGATTATGATCAGCATCTTATCGGAGTCACCTAGTGCAG | 4610 fluorescence intensity (a.u.)
ATTAAATTAGAAATAAATATTTTAATAGATACGGTGTCCACGGAGTCACCTAGTGCAG | 35000 fluorescence intensity (a.u.)
